Assay results as given in the BET-seq Pho4 binding data (Le et al. 2018).
The other results are listed elsewhere or left out. These are noisy estimates, calculated here from bound and input reads.

biological target: T1, Pho4 (S. cerevisiae) (UniProt P07270); experiment: relative binding free energy (BET-seq); higher = weaker binding; details: reference: library average
T1 sequence: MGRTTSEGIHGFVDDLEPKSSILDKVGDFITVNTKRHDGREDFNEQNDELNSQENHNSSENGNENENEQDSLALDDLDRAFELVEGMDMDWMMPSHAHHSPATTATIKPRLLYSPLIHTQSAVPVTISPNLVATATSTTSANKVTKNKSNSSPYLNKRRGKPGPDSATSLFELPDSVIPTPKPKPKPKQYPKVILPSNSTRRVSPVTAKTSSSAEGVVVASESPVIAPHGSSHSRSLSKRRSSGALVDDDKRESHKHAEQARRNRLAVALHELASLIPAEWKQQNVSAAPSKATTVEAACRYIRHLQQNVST

Relative binding free energy, 0.4 kcal/mol:
TTGTTCACGTGACGAG

Relative binding free energy, 0.16 kcal/mol:
TATGACACGTGAGTTA
AAAGACACGTGAGTGG
TGATACACGTGTGGTA
AATGACACGTGAGTAG
ATTTACACGTGCGGGG

Relative binding free energy, 0.09 kcal/mol:
GGTTGCACGTGGTCGG
TTGTACACGTGCGGTT
AGTATCACGTGGTTGA
GCCGGCACGTGTGAGT
TATGTCACGTGCGGCT
CATTTCACGTGTATTG
GGGTCCACGTGGTGAT

Relative binding free energy, 0.46 kcal/mol:
GGGTACACGTGAGTCT

Relative binding free energy, -0.08 kcal/mol:
TTGAGCACGTGGTGGA
TAATACACGTGGGTAA
GTGCGCACGTGGTTGC
TGCTGCACGTGCAGGG
AGGCGCACGTGGCGAG
CAGTACACGTGGGGGC

Relative binding free energy, -0.06 kcal/mol:
TGGTGCACGTGGCGGT
TGGGCCACGTGGCTTG
TTGAGCACGTGTAGTC

Relative binding free energy, 0.03 kcal/mol:
TGGTCCACGTGTGATG
TGGATCACGTGGTAAG
GGGGTCACGTGGCTGC
GGAGGCACGTGGTTAC
TCCTGCACGTGTTGTG
TTAATCACGTGGTGGT

Relative binding free energy, 0.36 kcal/mol:
ATTTGCACGTGAACTG
GGTTTCACGTGACTGA

Relative binding free energy, 0.41 kcal/mol:
ATGGTCACGTGAGAAT
GTTCTCACGTGAAGTT
ATATTCACGTGAGGTA
GTATTCACGTGCAATT

Relative binding free energy, 0.18 kcal/mol:
AATTTCACGTGCGTTG
CGTTTCACGTGAGTGA
ATAATCACGTGTGGAT
AGTATCACGTGCAGGT
TGGCTCACGTGCGTTT

Relative binding free energy, 0.14 kcal/mol:
GGAGACACGTGGTAAG
TTGTTCACGTGCATGA
AGGTCCACGTGAAGTG
TCGTACACGTGTGATT
TAGATCACGTGGTTTT
TTTGTCACGTGAGGAC
ATTGTCACGTGGATGA
GTATTCACGTGTTCTG
GTCATCACGTGGGAGA

Relative binding free energy, 0.27 kcal/mol:
TTTTCCACGTGCTGAG
TATTTCACGTGACATG
CAGGGCACGTGAGCGC

Relative binding free energy, -0.02 kcal/mol:
GGAGACACGTGCCGGG
GCATACACGTGGGGGG
TTAAGCACGTGCGTTT

Relative binding free energy, 0.13 kcal/mol:
AGTCTCACGTGGGGAG

Relative binding free energy, -0.01 kcal/mol:
TATGGCACGTGTGGTA
TGAGTCACGTGGCGAT
GTTGTCACGTGCTCGG
CGTAACACGTGGGTAA
ATTAACACGTGATGTG
TGGAGCACGTGGACGG
GGGAACACGTGGTGTG
GGGTGCACGTGGGCGT

Relative binding free energy, -0.07 kcal/mol:
TGTGGCACGTGTTTGT
AGGGGCACGTGGAGCT
CGTGGCACGTGGATAG
ATCTGCACGTGTGCGT
AAATGCACGTGGTGCG
ATAAACACGTGGGTGA

Relative binding free energy, 0.07 kcal/mol:
GCGGTCACGTGTATGG
TAAGTCACGTGGGAGA
CTTAACACGTGTTATA
GGCAACACGTGGGTGG
TGATACACGTGTGGTT

Relative binding free energy, 0.05 kcal/mol:
GGGATCACGTGGGACT
CTTGACACGTGGGAAG
CATAGCACGTGTCGGG

Relative binding free energy, -0.28 kcal/mol:
CAGCGCACGTGGGCGG

Relative binding free energy, 0.1 kcal/mol:
GTGTCCACGTGGATAG
CGTGGCACGTGATGGC
ATACTCACGTGGTAGT
TGGACCACGTGTTGGG
GCTAACACGTGTTGGG
TATTGCACGTGTGATG

Relative binding free energy, -0.15 kcal/mol:
CTTGACACGTGCGTGT

Relative binding free energy, 0.02 kcal/mol:
TGTGTCACGTGTAAGT
AGAGTCACGTGGGGGG

Relative binding free energy, 0.15 kcal/mol:
TTGGGCACGTGAGATG
ATAGACACGTGGAGTA
GGACTCACGTGGGTCG
GTTAACACGTGTAAAT
GCTATCACGTGGAGTT
CACGTCACGTGTGTTT

Relative binding free energy, 0.33 kcal/mol:
CTTTTCACGTGACGTT
ATGATCACGTGTTGGC

Relative binding free energy, 0.28 kcal/mol:
CTTTTCACGTGTTGCG
TTGAACACGTGAGGTT
TATGACACGTGAGGGG

Relative binding free energy, 0.22 kcal/mol:
GTTTACACGTGAGGAG

Relative binding free energy, 0.29 kcal/mol:
TGGTTCACGTGTTTAG

Relative binding free energy, -0.21 kcal/mol:
ATGGCCACGTGGGAAG

Relative binding free energy, 0.19 kcal/mol:
GGATGCACGTGATGTG
TCAATCACGTGGGTCT
GGTTTCACGTGGGCGC
TTTTTCACGTGCTACG

Relative binding free energy, 0.24 kcal/mol:
AATTTCACGTGCGTGA
GGATCCACGTGTTGGT
GAAGGCACGTGAGAGT
GTATCCACGTGAGTGG
TTGTTCACGTGCAAAG
CGATGCACGTGGAATT
AGTTCCACGTGATATG
GGGGTCACGTGTGGTA
ATTATCACGTGGATAG
TGATTCACGTGATGGC
GTTTTCACGTGCGGCT

Relative binding free energy, -0.12 kcal/mol:
TGTAGCACGTGCGTAG
TTTAACACGTGTGCGA
TGGGGCACGTGGCAGT
AGGGGCACGTGATTAG

Relative binding free energy, 0.43 kcal/mol:
GTGATCACGTGAGAAG

Relative binding free energy, -0.11 kcal/mol:
AGTGCCACGTGTGCGT
CTAGGCACGTGTAGGT
CTAGGCACGTGGAGGA
AGATCCACGTGGAGGG

Relative binding free energy, 0.25 kcal/mol:
TTGATCACGTGGTTCG
TCAGTCACGTGAAGTA
TAGTTCACGTGTTAGA

Relative binding free energy, 0.31 kcal/mol:
TTATTCACGTGATGTT
GATTGCACGTGAATGA
CTGTTCACGTGAATTG

Relative binding free energy, -0.2 kcal/mol:
ATTGGCACGTGCTCGG

Relative binding free energy, -0.03 kcal/mol:
AATGGCACGTGATAAT
TGTTACACGTGGGGTA
AAATACACGTGGTTAT
CAGGGCACGTGTGGAT
GTTTGCACGTGCTTGT
TGCGTCACGTGGATAG

Relative binding free energy, 0.08 kcal/mol:
GTTACCACGTGTCGTG
GGAGACACGTGGATTG
TGTTGCACGTGTAGGT
CGGAACACGTGTGGGC
TCTGGCACGTGATTGG
GAGGACACGTGGACGG

Relative binding free energy, -0.05 kcal/mol:
AATGGCACGTGTTTGT
AAGTGCACGTGATAGG
ATTAGCACGTGCTGGT
AGGGGCACGTGTGAGC
ATAGTCACGTGTGCTG

Relative binding free energy, -0.24 kcal/mol:
TACAGCACGTGGGGTG

Relative binding free energy, 0.35 kcal/mol:
TTTATCACGTGCTGTC

Relative binding free energy, -0.19 kcal/mol:
AGTGGCACGTGGAGGC

Relative binding free energy, -0.16 kcal/mol:
CGCTGCACGTGGTGGA
GATGGCACGTGGGGGC

Relative binding free energy, 0.32 kcal/mol:
AAGTTCACGTGTGGAT
GAGGTCACGTGTTTCG
CGCTTCACGTGTGGTT

Relative binding free energy, 0.01 kcal/mol:
TGTTGCACGTGGTAGT
AGTCGCACGTGGATGA

Relative binding free energy, 0.2 kcal/mol:
GTTGTCACGTGATTAA
AGGTTCACGTGGGGTT
AGGGTCACGTGCTCGG

Relative binding free energy, 0.12 kcal/mol:
GAGAGCACGTGAGTGG
GAGGGCACGTGATTAA

Relative binding free energy, -0.23 kcal/mol:
CGGCGCACGTGGTGTG

Relative binding free energy, 0.06 kcal/mol:
GAGGGCACGTGTTATC
GAATGCACGTGGGTTT
GTGTCCACGTGGTTGT

Relative binding free energy, 0.3 kcal/mol:
GGGCGCACGTGAGGCG

Relative binding free energy, 0.17 kcal/mol:
TATATCACGTGCTGCT
ACATTCACGTGGGTGT
TGAATCACGTGGTAGG

Relative binding free energy, -0.13 kcal/mol:
TATTGCACGTGGTTTG
TTGTGCACGTGCAGTT
TGTGGCACGTGCGGCA

Relative binding free energy, -0.25 kcal/mol:
ATTAACACGTGGTATG

Relative binding free energy, -0.26 kcal/mol:
CGTGGCACGTGGCATG
GGAGGCACGTGCTGCG

Relative binding free energy, 0 kcal/mol:
AGTGACACGTGGTTTC
CGAGACACGTGGGAGT
GTGGACACGTGGGGAA
TGTGGCACGTGTAGTT
TGTAGCACGTGATCGA
TGTTGCACGTGCGAGC
TACGTCACGTGTATGT
TTTTGCACGTGCAGAG

Relative binding free energy, -0.14 kcal/mol:
CTTAGCACGTGCGTGT
CGGAGCACGTGCGGGG

Relative binding free energy, -0.18 kcal/mol:
GGGGGCACGTGTTACA
TTCGGCACGTGCGTGT

Relative binding free energy, -0.3 kcal/mol:
CCAAGCACGTGGGGTG
AATAGCACGTGGGGAG

Relative binding free energy, -0.22 kcal/mol:
TTTGGCACGTGGGGGC
CCAGGCACGTGGGTAG
CGCGGCACGTGGAGGG
TTTGCCACGTGCGGTG

Relative binding free energy, -0.09 kcal/mol:
AGTAGCACGTGCTTAG
TAGGACACGTGGAGAG
TGGCACACGTGGTCGG

Relative binding free energy, 0.26 kcal/mol:
GGGGTCACGTGTGGGG
ATTAGCACGTGAATTG
GATTTCACGTGTGGAA

Relative binding free energy, -0.1 kcal/mol:
GCTGCCACGTGGTGTT
GGGAGCACGTGGCGTC
TGAGCCACGTGGTGAG

Relative binding free energy, -0.04 kcal/mol:
TTTAGCACGTGGATAG
GGACGCACGTGGAGTT
TTATACACGTGGTCTG

Relative binding free energy, 0.04 kcal/mol:
TTTGCCACGTGTGATG
GAGTGCACGTGTCGTA
CATGACACGTGAGTGG
GTGGGCACGTGTGGTG
TGGGACACGTGCTGTA
ATCAGCACGTGGTGTC
TACAACACGTGTTTTG

Relative binding free energy, 0.11 kcal/mol:
GGTTTCACGTGGCCTG
GGTGGCACGTGTGATG
AATGACACGTGGAAGT
AGGTACACGTGATGGT
TAAGGCACGTGAAGAT

Relative binding free energy, 0.21 kcal/mol:
TTGGGCACGTGAAAGT
CGAATCACGTGTGGTT
GTGAGCACGTGATGGA

Relative binding free energy, 0.23 kcal/mol:
ATTTACACGTGATATG
TGGTTCACGTGGGTAA
GTTTCCACGTGGGACT
TGGGTCACGTGGTAAT
CGTTTCACGTGTGTGC

Relative binding free energy, 0.38 kcal/mol:
AAATTCACGTGGGCGT
